In PubChem BioAssay AID445 (National Center for Advancing Translational Sciences (NCATS), 2006):
About 40 (0.04%) of roughly 110,000 compounds were called active. Inconclusive results, whose numbers are uncertain, are shown with a selection of clear calls. The call rests on the fitted dose curve; in most records, active means well fitted curve in the direction sought with a large enough effect in the signal ratio (not every such curve was filed as active); inconclusive means small, poorly fitted or top-dose-only effect, or a change in a side signal; inactive means flat fitted curve, though single readings scatter; the % refers to the signal ratio. Potencies of inconclusive entries are doubtful fits and often do not repeat.

Experiment: IkB Signaling;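 on IkBa stabilization activation: 0% = basal untreated cells and 100% = reference inhibitor full response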
Conditions: ABC-DLBCL IkBa-CBG/CBR dual luciferase ratio (green luciferase fused to IkBa over red control in OCI-Ly3 lymphoma cells), 4 h; IkBa stabilization activation: at 57.1 µM (top of the series), scaled: untreated 0%, proteasome inhibitor 100% unless noted
In short: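 In this assay, an IκBα–CBG68 fusion accumulates when IKK-driven degradation is blocked; native CBR normalizes for cell number. OCI-Ly3 cells were treated 4 h with compound and doxycycline, then green and red light read after Chroma-Glo addition.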
Potency means the concentration at half of the fitted maximal effect.

| Compound | IkBa stabilization activation | Potency |
| --- | --- | --- |
| c1ccc(-c2nc(NCCCN3CCOCC3)c3ccccc3n2)cc1 | inconclusive: 0.434% [signal inhibitor] |  |
| CN(c1ccccc1)S(=O)(=O)c1ccc(NC(=O)c2cc(=O)c3ccccc3o2)cc1 | inconclusive: -1.56% [signal inhibitor] |  |
| COc1ccc(Nc2cc(C(=O)NCCCN3CCN(c4ccc(OC)cc4)CC3)c3ccccc3n2)cc1 | inconclusive: -4.43% [signal inhibitor] |  |
| CCCSc1nnc(-c2cccc(S(=O)(=O)N(C)C)c2)n1-c1cc(OC)ccc1OC | inactive |  |
| O=C(CCn1cnnn1)Nc1ccc(F)cc1 |  | inconclusive: 2.51 µM [signal inhibitor, partial curve] |
| Cc1ccc(CNC(=O)c2coc(=O)c3ccccc23)o1 | inconclusive: 13.5% [signal activator] |  |
| COc1ccccc1C(=O)Nc1ccc(N2CCN(S(C)(=O)=O)CC2)cc1 | inactive |  |
| COc1ccc(-n2ncc(C(=O)NCCc3ccsc3)c2C2CCN(C(=O)OC(C)(C)C)CC2)cc1 | inconclusive: -4.56% [signal inhibitor] |  |
| COc1cccc(-c2nc(-c3ccccc3)no2)c1 |  | inconclusive: 25.1 µM [signal inhibitor, partial curve] |
| O=c1[nH]c(=O)n([C@H]2C[C@H](O)[C@H](CO)O2)cc1/C=C\Br | inactive |  |
| Cc1noc(-c2ccc(N3CCCCC3)c([N+](=O)[O-])c2)n1 | inconclusive: 2.84% [signal inhibitor] |  |
| Cc1cc(NC(=O)c2cccc(Cl)c2)ccc1-c1cc2ccccc2oc1=O | inconclusive: 2.96% [signal inhibitor] |  |
| Cc1ccccc1CCNC(=O)c1ccc2c(c1)nc1n2CCC(C)C1 (stereo not given) | inactive |  |
| CC(=O)N1CCCc2cc(S(=O)(=O)N3CCC(C(=O)NC4CCC(C)CC4)CC3)ccc21 (stereo not given) | inconclusive: 3.79% [signal inhibitor] |  |
| c1coc(-c2nc3ccccc3nc2-c2ccco2)c1 | inactive |  |
| COC(=O)c1ccc2c(=O)n(CCCCCC(=O)N3CCN(c4ccccc4)CC3)c(=O)[nH]c2c1 | inconclusive: 4.55% [signal inhibitor] |  |
| CCCc1cc(=O)oc2c3c(ccc12)OCN(Cc1ccc(OC)cc1)C3 | inactive |  |
| CCn1c(C(=O)NCc2ccccc2C)cc2oc3ccccc3c21 | inconclusive: -1.01% [signal inhibitor] |  |
| Cc1nc(-c2cccc(NC(=O)Nc3ccc([N+](=O)[O-])cc3)c2)no1 | inconclusive: -4.25% [signal inhibitor] |  |
| Cc1ccccc1OCCSc1nc2ccc(NC(=O)c3ccccc3)cc2s1 | inconclusive: 2.83% [signal inhibitor] |  |
| Clc1ccc(-c2nnc(-c3ccc(Br)o3)o2)c(Cl)c1 | inactive |  |
| O=C1C(C=NCCCn2ccnc2)=C(O)c2ccccc21 | inactive |  |
| O=C(C1CC1)N1CCc2cc(S(=O)(=O)NCC3COc4ccccc4O3)ccc21 (stereo not given) | inconclusive: 7.9% [signal inhibitor] |  |
| Cc1ccc(N(CC(=O)N2CCN(c3ccccc3F)CC2)S(=O)(=O)c2c(C)noc2C)cc1 | inconclusive: 3.47% [signal inhibitor] |  |

| Compound | IkBa stabilization activation | Potency |
| --- | --- | --- |
| COc1ccc(Cc2noc(-c3ccc(C)cc3)n2)cc1 | inconclusive: 7.86% [signal activator] |  |
| CCOc1ccc(C(=O)CCNC(Cc2cnc[nH]2)C(=O)O)cc1 (stereo not given) | inactive |  |
| COc1cc2c(cc1OC)C(c1ccc(F)cc1)N(c1cccc(C#N)c1)C(=O)C2 (stereo not given) | inconclusive: 0.213% [signal inhibitor] |  |
| Cc1cccc(Nc2ncnc3nc[nH]c23)c1 | inconclusive: 5.37% [signal inhibitor] |  |
| O=C(Nc1cccc(C(=O)OCc2cc(=O)n3nc(C4CC4)sc3n2)c1)c1cccc(F)c1 | inconclusive: 4.09% [signal inhibitor] |  |
| COc1cc2c(cc1OC)C(COc1ccc3c(C)cc(=O)oc3c1)N(C(=O)c1cccc(C)c1)CC2 (stereo not given) | inconclusive: 6.43% [signal inhibitor] |  |
| COc1cccc(-c2csc(N3CCN(C(=O)Nc4ccccc4OC)CC3)n2)c1 | inconclusive: 7.08% [signal inhibitor] |  |
| O=C(NCCc1ccccc1)c1ccc2c(c1)N(Cc1c(F)cccc1Cl)C(=O)CS2 | inconclusive: 1.03% [signal inhibitor] |  |
| Cn1c(=O)c(=O)n(C)c2cc(S(=O)(=O)N3CCCC3C(=O)Nc3ccccc3F)ccc21 (stereo not given) | inconclusive: 0.925% [signal inhibitor] |  |
| CCCn1nc(C(=O)Nc2cccc(C(=O)OC)c2)c2ccccc2c1=O | inconclusive: 3.12% [signal inhibitor] |  |
| COc1ccc(NC(=O)CSc2nncn3c2cc2oc(C)cc23)cc1OC | inconclusive: 3.02% [signal inhibitor] |  |
| O=C(NCC1CCCO1)c1ccc(C(=O)NCC2CCCO2)cc1 (stereo not given) | inactive |  |
| NC(=O)CSc1oc(-c2ccco2)nc1S(=O)(=O)c1ccc(Cl)cc1 | inconclusive: 1.62% [signal inhibitor] |  |
| O=C(NCCc1ccccc1)c1sc2ncccc2c1-n1cccc1 | inconclusive: 2.37% [signal inhibitor] |  |
| CCCc1cnc2c(c1SCC(=O)N1CCC(C)CC1)c(=O)n(C)c(=O)n2C | inconclusive: 0.105% [signal inhibitor] |  |
| CCOCC(=O)Nc1c(C(=O)OCC)oc2ccccc12 | inactive |  |
| Cc1nn(Cc2ccccc2Cl)c(C)c1NC(=O)c1cc(C(C)C)on1 | inconclusive: 4.62% [signal inhibitor] |  |
| CCC1CCCCN1C(=O)Cn1c(=O)oc2cc(S(=O)(=O)N3CCCCC3)ccc21 (stereo not given) | inactive |  |
| CC(C)CC(=O)Nc1cccc(-c2cn3ccsc3n2)c1 | inactive |  |
| CCCN1C(=O)c2[nH]nc(-c3ccccc3O)c2C1c1ccc(OCc2ccccc2)c(OC)c1 (stereo not given) | inconclusive: -2.25% [signal inhibitor] |  |
| COc1ccc(C2=NOC(C(=O)N3CCCc4ccccc43)C2)cc1 (stereo not given) | inconclusive: 1.67% [signal inhibitor] |  |
| CCCC(=O)Nc1nc2ccc(OC)cc2s1 | inconclusive: 12.8% [signal inhibitor] |  |
| COc1cccc2c1cc1c(=O)n(CC(=O)NC3CCCCC3)nc(C)n12 | inactive |  |
| Cc1ccc(C(=O)Nc2cccc(OCc3cc(=O)n4c5c(sc4n3)CCCC5)c2)cc1 | inconclusive: 5.77% [signal inhibitor] |  |

| Compound | IkBa stabilization activation | Potency |
| --- | --- | --- |
| CCCCNC(=O)C(C#N)c1nc2ccccc2nc1N1CCCC1 (stereo not given) | inactive |  |
| COc1ccc(Cl)cc1N(C)C(=O)c1ccc2c(=O)n3c(nc2c1)CCCCC3 | inconclusive: 3.06% [signal inhibitor] |  |
| Cc1nc2c(-c3ccccc3)c(C)nn2c(C)c1CCC(=O)N1CCN(c2ccc(F)cc2)CC1 | inconclusive: 2.99% [signal inhibitor] |  |
| COc1cccc(CNC(=O)CCc2c(C)nc3c(c(C)nn3-c3ccc(C)c(C)c3)c2C)c1 | inconclusive: -0.455% [signal inhibitor] |  |
| CSc1ccc(CCNC(=O)c2ccc(-c3nc(COc4ccccc4)c(C)o3)cc2)cc1 | inactive |  |
| Cc1cccc(N2CCN(CCCNc3ncnc4onc(-c5ccc(Cl)cc5)c34)CC2C)c1 (stereo not given) | inconclusive: -0.21% [signal inhibitor] |  |
| CCOc1ccccc1CNC(=O)C1CCN(C(=O)N2CC(CC)Oc3ccc(C)cc32)CC1 (stereo not given) | inconclusive: 4.65% [signal inhibitor] |  |
| COc1ccc(-c2coc3ccc(O[C@@H]4O[C@@H](COC(C)=O)[C@@H](OC(C)=O)[C@@H](OC(C)=O)[C@H]4OC(C)=O)cc3c2=O)cc1 | inactive: 4.04% [at 11.4 µM, scaled: untreated 0%, proteasome inhibitor 100%] |  |
| O=C(/C=C/c1ccccc1)N1CCN(Cc2cc(=O)n3nc(-c4ccccc4F)sc3n2)CC1 | inconclusive: 1.5% [signal inhibitor] |  |
| COc1ccc(N2CC(NC(=O)/C=C\c3ccccc3)CC2=O)cc1 (stereo not given) | inconclusive: 6.11% [signal inhibitor] |  |
| Cc1cc(OCCn2cc(C(=O)c3cccs3)c3ccccc32)ccc1Cl | inconclusive: 15.6% [signal inhibitor] |  |
| Cc1nnc(SCC(=O)c2cc(C)n(-c3ccc4c(c3)OCO4)c2C)s1 | inconclusive: 4.41% [signal inhibitor] |  |
| O=C(Nc1ccc2nc(SCC(=O)N3CCOCC3)sc2c1)c1cccc(Cl)c1 | inconclusive: -0.274% [signal inhibitor] |  |
| Cc1c(C(=O)OCCOc2ccccc2)[nH]c2c1C(=O)CC(c1ccccc1)C2 (stereo not given) | inactive |  |
| COc1ccc(CCNC(=O)c2nnn(-c3ccc4c(c3)OCCO4)c2N)cc1OC | inconclusive: 0.582% [signal inhibitor] |  |
| CCc1ccc(NCc2cc3cc4c(cc3n(CC(=O)Nc3cccc(OC)c3)c2=O)OCO4)cc1 | inconclusive: 1.06% [signal inhibitor] |  |
| COc1ccc(-c2nc(C#N)c(NCc3ccccc3Cl)o2)cc1 | inactive |  |
| CC(C)COc1ccc(C(=O)NCC2(N3CCN(C)CC3)CCCCC2)cc1 | inconclusive: 0.794% [signal inhibitor] |  |
| CCc1ccc2ncc3c(-c4ccccc4)nn(-c4ccccc4)c3c2c1 | inconclusive: 2.54% [signal inhibitor] |  |
| COc1cccc(NC(=O)CSc2nnc3scc(-c4ccc(Cl)cc4)n23)c1 | inconclusive: 3.8% [signal inhibitor] |  |
| C1=C(c2ccc(-c3ccccc3)cc2)Nc2ncnn2C1c1ccco1 (stereo not given) |  | inconclusive: 25.1 µM [signal inhibitor, partial curve] |
| O=C(NCc1ccco1)c1cc2sccc2n1Cc1ccc(F)cc1 | inconclusive: 3.88% [signal inhibitor] |  |
